The values that follow come from publication PMC9911399, “Two distinct binding modes provide the RNA-binding protein RbFox with extraordinary sequence specificity”.

First the molecules themselves.
B1: CCUGAGA (DNA:RNA)
RNA: GGGAGACCGGAAUUCAGAUUGUCCCCUGAGAUUAAAUCCCGUCGUAGCCACCA
DNA 1: CAATCTGAATTCCGGTCTCCC
DNA 2: TGGTGGCTACGACGGGATT
B2: GUGAGAU (DNA:RNA)
RNA: GGGAGACCGGAAUUCAGAUUGUCCGUGAGAUUUAAAUCCCGUCGUAGCCACCA
DNA 1: CAATCTGAATTCCGGTCTCCC
DNA 2: TGGTGGCTACGACGGGATT
B3: CAUCUUA (DNA:RNA)
RNA: B1 RNA with C26A, G28C, A29U, G30U
DNA 1: CAATCTGAATTCCGGTCTCCC
DNA 2: TGGTGGCTACGACGGGATT
B4: UGAGUGA (DNA:RNA)
RNA: B1 RNA with C25U, C26G, U27A, A29U
DNA 1: CAATCTGAATTCCGGTCTCCC
DNA 2: TGGTGGCTACGACGGGATT
B5: UGUCUCU (DNA:RNA)
RNA: B1 RNA with C25U, C26G, G28C, A29U, G30C, A31U
DNA 1: CAATCTGAATTCCGGTCTCCC
DNA 2: TGGTGGCTACGACGGGATT
B6: UCCUGUC (DNA:RNA)
RNA: B1 RNA with C25U, U27C, G28U, A29G, G30U, A31C
DNA 1: CAATCTGAATTCCGGTCTCCC
DNA 2: TGGTGGCTACGACGGGATT
B7: UCAAGGU (DNA:RNA)
RNA: B2 RNA with G25U, U26C, G27A, A30G
DNA 1: CAATCTGAATTCCGGTCTCCC
DNA 2: TGGTGGCTACGACGGGATT
B8: CACCCGG (DNA:RNA)
RNA: B1 RNA with C26A, U27C, G28C, A29C, A31G
DNA 1: CAATCTGAATTCCGGTCTCCC
DNA 2: TGGTGGCTACGACGGGATT
B9: CUCAUUA (DNA:RNA)
RNA: B1 RNA with C26U, U27C, G28A, A29U, G30U
DNA 1: CAATCTGAATTCCGGTCTCCC
DNA 2: TGGTGGCTACGACGGGATT
B10: GAUUACC (DNA:RNA)
RNA: B1 RNA with C25G, C26A, G28U, G30C, A31C
DNA 1: CAATCTGAATTCCGGTCTCCC
DNA 2: TGGTGGCTACGACGGGATT
B11: AAGUUAG (DNA:RNA)
RNA: B2 RNA with G25A, U26A, A28U, G29U, U31G
DNA 1: CAATCTGAATTCCGGTCTCCC
DNA 2: TGGTGGCTACGACGGGATT
B12: GGUAGGA (DNA:RNA)
RNA: B1 RNA with C25G, C26G, G28A, A29G
DNA 1: CAATCTGAATTCCGGTCTCCC
DNA 2: TGGTGGCTACGACGGGATT
B13: AUCAUCA (DNA:RNA)
RNA: B2 RNA with G25A, G27C, G29U, A30C, U31A
DNA 1: CAATCTGAATTCCGGTCTCCC
DNA 2: TGGTGGCTACGACGGGATT
B14: AUAAUAC (DNA:RNA)
RNA: B2 RNA with G25A, G27A, G29U, U31C
DNA 1: CAATCTGAATTCCGGTCTCCC
DNA 2: TGGTGGCTACGACGGGATT
B15: CCACAUA (DNA:RNA)
RNA: B1 RNA with U27A, G28C, G30U
DNA 1: CAATCTGAATTCCGGTCTCCC
DNA 2: TGGTGGCTACGACGGGATT
B16: GGCCGGA (DNA:RNA)
RNA: B1 RNA with C25G, C26G, U27C, G28C, A29G
DNA 1: CAATCTGAATTCCGGTCTCCC
DNA 2: TGGTGGCTACGACGGGATT
B17: CGCAGUG (DNA:RNA)
RNA: B2 RNA with G25C, U26G, G27C, A30U, U31G
DNA 1: CAATCTGAATTCCGGTCTCCC
DNA 2: TGGTGGCTACGACGGGATT
B18: CCCGCCG (DNA:RNA)
RNA: B1 RNA with U27C, A29C, G30C, A31G
DNA 1: CAATCTGAATTCCGGTCTCCC
DNA 2: TGGTGGCTACGACGGGATT
B19: AGUCUAC (DNA:RNA)
RNA: B1 RNA with C25A, C26G, G28C, A29U, G30A, A31C
DNA 1: CAATCTGAATTCCGGTCTCCC
DNA 2: TGGTGGCTACGACGGGATT
B20: CCUACGC (DNA:RNA)
RNA: B1 RNA with G28A, A29C, A31C
DNA 1: CAATCTGAATTCCGGTCTCCC
DNA 2: TGGTGGCTACGACGGGATT
B21: AGAACCA (DNA:RNA)
RNA: B1 RNA with C25A, C26G, U27A, G28A, A29C, G30C
DNA 1: CAATCTGAATTCCGGTCTCCC
DNA 2: TGGTGGCTACGACGGGATT
B22: AUAUGUA (DNA:RNA)
RNA: B2 RNA with G25A, G27A, A28U, A30U, U31A
DNA 1: CAATCTGAATTCCGGTCTCCC
DNA 2: TGGTGGCTACGACGGGATT
B23: AUUCUAU (DNA:RNA)
RNA: B2 RNA with G25A, G27U, A28C, G29U
DNA 1: CAATCTGAATTCCGGTCTCCC
DNA 2: TGGTGGCTACGACGGGATT
B24: CGGGCAA (DNA:RNA)
RNA: B1 RNA with C26G, U27G, A29C, G30A
DNA 1: CAATCTGAATTCCGGTCTCCC
DNA 2: TGGTGGCTACGACGGGATT
B25: CUUAUUU (DNA:RNA)
RNA: B2 RNA with G25C, G27U, G29U, A30U
DNA 1: CAATCTGAATTCCGGTCTCCC
DNA 2: TGGTGGCTACGACGGGATT
B26: GUCGACG (DNA:RNA)
RNA: B1 RNA with C25G, C26U, U27C, G30C, A31G
DNA 1: CAATCTGAATTCCGGTCTCCC
DNA 2: TGGTGGCTACGACGGGATT
B27: UCCACCA (DNA:RNA)
RNA: B1 RNA with C25U, U27C, G28A, A29C, G30C
DNA 1: CAATCTGAATTCCGGTCTCCC
DNA 2: TGGTGGCTACGACGGGATT
B28: UGGAUCU (DNA:RNA)
RNA: B2 RNA with G25U, U26G, G29U, A30C
DNA 1: CAATCTGAATTCCGGTCTCCC
DNA 2: TGGTGGCTACGACGGGATT
B29: UCGGUGU (DNA:RNA)
RNA: B1 RNA with C25U, U27G, A29U, A31U
DNA 1: CAATCTGAATTCCGGTCTCCC
DNA 2: TGGTGGCTACGACGGGATT
B30: GGAUGCC (DNA:RNA)
RNA: B2 RNA with U26G, G27A, A28U, A30C, U31C
DNA 1: CAATCTGAATTCCGGTCTCCC
DNA 2: TGGTGGCTACGACGGGATT
B31: GUAAGAU (DNA:RNA)
RNA: B2 RNA with G27A
DNA 1: CAATCTGAATTCCGGTCTCCC
DNA 2: TGGTGGCTACGACGGGATT

Numbering of substitutions follows the chain as printed; changes in the protein carry UniProt numbers. This is one part of the list.

The assay addresses T1, RBFOX1 RRM RbFoxmut (Fox-RRM*) (Homo sapiens, UniProt Q9NWB1 109-208, R118D;E147R;N151S;E152T).
T1 sequence: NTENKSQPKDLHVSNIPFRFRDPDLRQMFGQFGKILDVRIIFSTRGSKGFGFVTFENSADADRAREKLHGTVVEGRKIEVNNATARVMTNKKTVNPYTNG
Description: EMSA; HiTS-Eq, 1 nM pool, 10 min; buffer printed only for the single-RNA assays: 10 mM Tris pH 7.5, 150 mM NaCl, 3.4 mM EDTA, 0.001% NP-40, 30 C. The settings on record: tags: His6 N-terminal (pET28a); label: 5' 32P. The essentials:
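Relative association constants, normalised to the cognate motif, were derived by comparing read counts of each RNA species with those of the control reaction. The RNA sequenced was the free fraction, separated by 8% native PAGE after a 10 min equilibration in 50 µL of 1 nM 5′-radiolabelled RNA (7 randomized nucleotides) with increasing concentrations of purified wild-type or mutant RbFox RRM.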
A general note: In EMSA bound probe runs differently from free probe, usually more slowly.
Regarding B1, the binding signal is 0.1 KA relative to UGCAUGU.

Consider B2, for which the binding signal was 0.101 KA relative to UGCAUGU.

In the case of B3, the binding signal was 0.137 KA relative to UGCAUGU.

For B4, the binding signal was 0.111 KA relative to UGCAUGU.

In the case of B5, the binding signal is 0.119 KA relative to UGCAUGU.

On to B6, for which the binding signal was 0.164 KA relative to UGCAUGU.

In the case of B7, the binding signal was 0.107 KA relative to UGCAUGU.

B8: the binding signal was 0.0792 KA relative to UGCAUGU.

Consider B9, for which the binding signal is 0.119 KA relative to UGCAUGU.

Regarding B10, the binding signal is 0.0474 KA relative to UGCAUGU.

Regarding B11, the binding signal was 0.135 KA relative to UGCAUGU.

In the case of B12, the binding signal is 0.0596 KA relative to UGCAUGU.

For the molecule B13, the binding signal was 0.0942 KA relative to UGCAUGU.

As to B14, the binding signal is 0.0898 KA relative to UGCAUGU.

B15: the binding signal was 0.122 KA relative to UGCAUGU.

B16: the binding signal is 0.0626 KA relative to UGCAUGU.

B17: the binding signal was 0.155 KA relative to UGCAUGU.

Take B18: the binding signal was 0.0882 KA relative to UGCAUGU.

With B19, the binding signal was 0.0848 KA relative to UGCAUGU.

For B20, the binding signal is 0.0863 KA relative to UGCAUGU.

On to B21, for which the binding signal is 0.0847 KA relative to UGCAUGU.

Take B22: the binding signal was 0.261 KA relative to UGCAUGU.

With B23, the binding signal was 0.112 KA relative to UGCAUGU.

Regarding B24, the binding signal was 0.0738 KA relative to UGCAUGU.

Regarding B25, the binding signal was 0.112 KA relative to UGCAUGU.

In the case of B26, the binding signal was 0.0717 KA relative to UGCAUGU.

For the molecule B27, the binding signal was 0.0927 KA relative to UGCAUGU.

Turning to B28, the binding signal is 0.259 KA relative to UGCAUGU.

Turning to B29, the binding signal is 0.131 KA relative to UGCAUGU.

In the case of B30, the binding signal is 0.168 KA relative to UGCAUGU.

With B31, the binding signal is 0.0833 KA relative to UGCAUGU.
